Here are results for 44 compounds from publication PMC4336329 (PLoS ONE, 2015).

Screen size: about 310,000 compounds; about 14,000 (4.5%) showed an effect of 50% or more. Effects have a minus sign here. This is one part of the list.
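Further: peak tail current of the secondary pulse compared with the same well before compound.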

Chain of human ether-à-go-go-related gene (hERG) potassium channel (Q12809 whole entry, looked up): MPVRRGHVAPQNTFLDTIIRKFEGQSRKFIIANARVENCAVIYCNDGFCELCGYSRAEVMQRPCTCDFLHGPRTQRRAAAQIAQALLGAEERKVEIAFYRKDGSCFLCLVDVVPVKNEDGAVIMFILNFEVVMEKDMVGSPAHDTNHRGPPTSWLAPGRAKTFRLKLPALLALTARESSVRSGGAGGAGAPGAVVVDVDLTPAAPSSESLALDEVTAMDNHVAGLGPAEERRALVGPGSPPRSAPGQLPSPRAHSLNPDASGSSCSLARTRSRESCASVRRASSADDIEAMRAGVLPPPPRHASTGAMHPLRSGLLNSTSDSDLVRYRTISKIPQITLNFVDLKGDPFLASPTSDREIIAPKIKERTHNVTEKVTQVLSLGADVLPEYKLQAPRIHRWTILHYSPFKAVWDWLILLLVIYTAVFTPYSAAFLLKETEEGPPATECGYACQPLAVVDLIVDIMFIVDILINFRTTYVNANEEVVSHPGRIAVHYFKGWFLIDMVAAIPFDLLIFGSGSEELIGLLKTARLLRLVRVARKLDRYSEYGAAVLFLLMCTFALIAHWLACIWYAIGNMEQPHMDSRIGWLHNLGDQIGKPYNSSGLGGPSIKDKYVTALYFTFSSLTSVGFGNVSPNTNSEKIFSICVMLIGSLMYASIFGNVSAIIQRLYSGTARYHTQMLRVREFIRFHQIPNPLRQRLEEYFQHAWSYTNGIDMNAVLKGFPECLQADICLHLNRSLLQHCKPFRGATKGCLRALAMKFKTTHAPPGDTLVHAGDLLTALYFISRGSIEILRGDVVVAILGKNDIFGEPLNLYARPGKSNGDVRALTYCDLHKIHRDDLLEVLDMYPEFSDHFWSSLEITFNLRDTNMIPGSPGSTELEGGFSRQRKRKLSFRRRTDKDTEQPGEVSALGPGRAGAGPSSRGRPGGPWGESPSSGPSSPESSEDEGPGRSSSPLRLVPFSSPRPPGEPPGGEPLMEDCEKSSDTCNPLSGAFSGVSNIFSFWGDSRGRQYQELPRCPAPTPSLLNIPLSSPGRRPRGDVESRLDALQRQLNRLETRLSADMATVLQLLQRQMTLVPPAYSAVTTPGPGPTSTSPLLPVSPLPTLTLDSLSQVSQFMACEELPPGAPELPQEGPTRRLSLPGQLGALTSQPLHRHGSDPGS

The test has as its target human ether-à-go-go-related gene (hERG) potassium channel (human, UniProt Q12809). Briefly: primary screen, population patch clamp on CHO cells stably expressing hERG.
Take `CCCOc1ccc(/C(O)=C2/C(=O)C(=O)N(c3cc(C)on3)C2c2ccc(C(=O)OC)cc2)cc1` (centres unmarked): the “hERG current change (%, negative = inhibition) at 10uM” value was 15.1%.
On to `O=C(O)/C=C/C(=O)N1CCN(Cc2ccc3c(c2)OCO3)CC1`, for which the “hERG current change (%, negative = inhibition) at 10uM” value turned out to be 4.54%.
`S=C(NN=C1C2CC3CC(C2)CC1C3)Nc1ccccc1`: the “hERG current change (%, negative = inhibition) at 10uM” value was 11.1%.
Regarding `CC(C)Cc1nnc(NC(=O)CN2C(=O)NC3(CCCCC3)C2=O)s1`, the “hERG current change (%, negative = inhibition) at 10uM” value is -3.83%.
In the case of `O=C(O)c1ccc(N/N=C/c2ccc(F)c(F)c2)cc1.O=S(=O)(O)O`, the “hERG current change (%, negative = inhibition) at 10uM” value was 12.5%.
Next, `COC(=O)c1cccc(S(=O)(=O)N2CCN(c3nc4ccccc4s3)CC2)c1`: 11.5%; `C/C(=N\NC(=O)c1cc(C(C)(C)C)[nH]n1)C12CC3CC(CC(C3)C1)C2`: -14.5%; `Cc1sc2nc(C)n(/N=C/N(C)C)c(=O)c2c1C`: 1.6%.
With `C/C(=N\OCC(=O)Nc1c(C)cc(C)cc1C)c1ccc2c(c1)OCCO2` the figure was 6.27%; with `COc1cccc(N2CCN(C(=O)C3CCC(=O)N(C4CCCCCC4)C3)CC2)c1` (centres unmarked), -32.8%; with `N#Cc1cc2c([nH]c1=S)CCCC2`, 11.8%.
For `CSCC[C@H](NC(=O)OC(C)(C)C)C(=O)N/N=C/c1ccc2nccnc2c1`, the “hERG current change (%, negative = inhibition) at 10uM” value is -4.92%.
Next, `C=CCNC(=S)/C(=C(\[O-])c1ccc(Cl)cc1)[n+]1ccccc1`: -7.93%.
Take `CCOC(=O)Cn1c(=O)oc2cc(S(=O)(=O)N(C)Cc3ccccc3)ccc21`: the “hERG current change (%, negative = inhibition) at 10uM” value worked out at 5.24%.
On to `CCCNC(=O)NCCC12CC3CC(CC(C3)C1)C2`, for which the “hERG current change (%, negative = inhibition) at 10uM” value worked out at 6.43%.
With `COCCNC(=O)c1cc2cc(Br)cc(OC)c2oc1=O`, the “hERG current change (%, negative = inhibition) at 10uM” value is on record as -5.69%.
Next, `O=C(Cc1cccs1)N1CCN(S(=O)(=O)c2ccc(Cl)c(C(F)(F)F)c2)CC1`: -13.5%.
Take `O=C1C(Cc2c[nH]c3ccccc23)NC(=S)N1Cc1ccccc1` (centres unmarked): the “hERG current change (%, negative = inhibition) at 10uM” value is -9.4%.
Regarding `Nc1c(-c2ccccc2)cnn1-c1cccc([N+](=O)[O-])c1`, the “hERG current change (%, negative = inhibition) at 10uM” value came out at 3.29%.
On to `CCN(CC(=O)Nc1ccc(NC(C)=O)cc1)C(=O)c1cc2c(s1)CCCC2`, for which the “hERG current change (%, negative = inhibition) at 10uM” value was determined as 0.233%.
Next, `CC1(C)CC(=O)C=C(Nc2ccc(Cl)c(Br)c2)C1`: -18.8%; `COc1ccc(C2CC(c3ccc(C)cc3)=NN2C(=O)CCC(=O)O)cc1OC` (centres unmarked): 1.69%; `O=C(NCCCNC(=O)c1ccccn1)c1ccc(Br)cc1`: 7.28%.
Next, `CCC1Oc2ccc(C)cc2N(CC(=O)NC2CCCCC2)C1=O` (centres unmarked): 5.8%; `CCOc1ccc(C(=O)Nc2cc3c(cc2N2CCCC2)n(CC)c(=O)n3CC)cc1OCC`: 5.16%; `O=S(=O)(NCCCN1CCOCC1)c1ccc(Cl)cc1`: 19.3%.
With `COc1ccc(/C=C2/Sc3ccc(C(=O)NCCCN4CCOCC4)cc3NC2=O)cc1OC`, the “hERG current change (%, negative = inhibition) at 10uM” value is reported as 6.64%.
`O=C(OCc1nnc(-c2cccs2)o1)C1=NN(c2ccccc2)C(=O)CC1`: the “hERG current change (%, negative = inhibition) at 10uM” value is given as 1.68%.
With `O=C1C(Nc2ccccc2)=C2CCCC=C2N1c1ccccc1` the figure was 17.5%.
With `CN(c1ccccc1)S(=O)(=O)c1ccc(NC(=O)c2ccc(-c3ccccc3)cc2)cc1` the figure was 1.75%; with `CCOC(=O)C1CCN(S(=O)(=O)c2c(C)noc2C)CC1`, -37.9%.
Consider `CCn1c2ccccc2c2cc(NC(=O)C(=O)N3CCOCC3)ccc21`, for which the “hERG current change (%, negative = inhibition) at 10uM” value stood at 10.1%.
For `COc1ccc(NCc2nnc(SCC(=O)NCc3ccccc3)n2-c2ccccc2OC)cc1`, the “hERG current change (%, negative = inhibition) at 10uM” value is given as -14.2%.
With `CC1=NN(S(=O)(=O)c2ccc(F)cc2)C(=O)c2ccccc2O1`, the “hERG current change (%, negative = inhibition) at 10uM” value amounted to 1.11%.
Regarding `O=C(O)CSC(C(=O)Nc1ccc(Br)cc1)c1ccccc1` (centres unmarked), the “hERG current change (%, negative = inhibition) at 10uM” value is listed as 6.45%.
Turning to `Cc1cc2oc(C(=O)Nc3ccc(S(=O)(=O)N4CCCC(C)C4)cc3)cc(=O)c2cc1Cl` (centres unmarked), the “hERG current change (%, negative = inhibition) at 10uM” value is reported as 1.67%.
On to `CS(=O)(=O)N(CC(=O)Nc1ccc(S(=O)(=O)N2CCOCC2)cc1)c1ccccc1Br`, for which the “hERG current change (%, negative = inhibition) at 10uM” value is 13.4%.
Turning to `Cc1cccc(N2CCN(C(=O)CCCCCn3c(=S)[nH]c4ccc(N5CCOCC5)cc4c3=O)CC2)c1C`, the “hERG current change (%, negative = inhibition) at 10uM” value is 28.7%.
Regarding `COc1ccc(OC)c(CN(CCN2CCOCC2)S(=O)(=O)c2ccc(NC(C)=O)cc2)c1`, the “hERG current change (%, negative = inhibition) at 10uM” value is -4.48%.
Consider `O=C(CSc1nccc(-c2cccs2)n1)Nc1ccc(Cl)cc1`, for which the “hERG current change (%, negative = inhibition) at 10uM” value worked out at 9.4%.
`COc1ccc(C(NC(=O)/C=C/c2ccco2)c2ccc(OC)c(OC)c2)cc1OC`: the “hERG current change (%, negative = inhibition) at 10uM” value was found to be 4.98%.
Next, `Cn1c(C(=O)Nc2ccc3c(c2)OCCO3)cc2sccc21`: -8.38%; `O=C(N1CCOCC1)N1CCN(c2ccccn2)CC1`: 4.74%.
In the case of `Cc1cc(C(=O)N2CCC(Cc3ccccc3)CC2)c(C)o1`, the “hERG current change (%, negative = inhibition) at 10uM” value is on record as -29.7%.
